Data taken from the supplement of paper PMC9151546.
Most values come without repeats; read them as rough.

Key:
[1] = system: CHO-K1; test: hypodiploid nuclei frequency (% of nucleated events); higher = more hypodiploid events (aneugenic)
Protocol: (§1)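 Flow-cytometric in vitro micronucleus assay (Litron MicroFlow) in CHO-K1 cells in 96-well plates, 19 concentrations (4.5-200 µM, n=1 per concentration). Without S9, cells were exposed for 24 h and sampled at 48 h. With Aroclor 1254-induced rat liver S9, cells were exposed for 3-4 h and sampled at 27-28 h. Read-outs are %MN and %hypodiploid nuclei relative to nucleated events, and relative survival as the nuclei-to-bead ratio versus the 1% DMSO vehicle control (x100).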

[2] = system: CHO-K1; test: micronucleus frequency (% of nucleated events); higher = more micronuclei (genotoxic)
[3] = system: CHO-K1; test: relative survival (nuclei to bead ratio vs DMSO control) (% of vehicle control); higher = more surviving cells
Protocol: as §1
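Wherever hypodiploid nuclei frequency (% of nucleated events) is given: hypodiploid nuclei gated on a flow cytometer with 488 nm excitation after SYTOX Green staining, cultures at 37 °C, positive controls vinblastine without S9 and cyclophosphamide with S9.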
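Wherever micronucleus frequency (% of nucleated events) is given: cells lysed with nuclei stained by SYTOX Green, then micronucleus-gated events counted against nucleated events by flow cytometry with 488 nm excitation.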
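Wherever relative survival (nuclei to bead ratio vs DMSO control) is given: Lysed-cell nuclei stained with SYTOX Green and counted against counting beads by flow cytometry at 488 nm excitation, with vinblastine (no S9) and cyclophosphamide (plus S9) as positive controls.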

CC(N)=O [Acetamide]
Conditions | hypodiploid nuclei frequency, [1] [%] | micronucleus frequency, [2] [%] | relative survival, [3]
concentration: 0.446 (µM), S9 metabolic activation: with S9, exposure time: 3-4 hours | 0.52 | 1.42 | 98.5
concentration: 0.446 (µM), S9 metabolic activation: without S9, exposure time: 24 hours | 3.58 | 1.7 | 114
concentration: 0.557 (µM), S9 metabolic activation: with S9, exposure time: 3-4 hours | 0.4 | 1.08 | 124
concentration: 0.557 (µM), S9 metabolic activation: without S9, exposure time: 24 hours | 1.22 | 1.18 | 129
concentration: 0.697 (µM), S9 metabolic activation: with S9, exposure time: 3-4 hours | 0.32 | 0.92 | 106
concentration: 0.697 (µM), S9 metabolic activation: without S9, exposure time: 24 hours | 1.06 | 0.88 | 120
concentration: 0.871 (µM), S9 metabolic activation: with S9, exposure time: 3-4 hours | 0.26 | 0.88 | 119
concentration: 0.871 (µM), S9 metabolic activation: without S9, exposure time: 24 hours | 0.66 | 1.06 | 126
concentration: 1.09 (µM), S9 metabolic activation: with S9, exposure time: 3-4 hours | 0.36 | 0.96 | 123
concentration: 1.09 (µM), S9 metabolic activation: without S9, exposure time: 24 hours | 0.54 | 1.26 | 120
concentration: 1.36 (µM), S9 metabolic activation: with S9, exposure time: 3-4 hours | 0.42 | 1.2 | 128
concentration: 1.36 (µM), S9 metabolic activation: without S9, exposure time: 24 hours | 0.98 | 1.22 | 134
concentration: 1.7 (µM), S9 metabolic activation: with S9, exposure time: 3-4 hours | 0.28 | 0.82 | 121
concentration: 1.7 (µM), S9 metabolic activation: without S9, exposure time: 24 hours | 0.74 | 1.86 | 133
concentration: 2.13 (µM), S9 metabolic activation: with S9, exposure time: 3-4 hours | 0.46 | 1.2 | 120
concentration: 2.13 (µM), S9 metabolic activation: without S9, exposure time: 24 hours | 0.84 | 1.2 | 136
concentration: 2.66 (µM), S9 metabolic activation: with S9, exposure time: 3-4 hours | 0.38 | 1.12 | 111
concentration: 2.66 (µM), S9 metabolic activation: without S9, exposure time: 24 hours | 5.48 | 1.24 | 118
concentration: 3.32 (µM), S9 metabolic activation: with S9, exposure time: 3-4 hours | 0.26 | 1.18 | 109
concentration: 3.32 (µM), S9 metabolic activation: without S9, exposure time: 24 hours | 16.5 | 2.2 | 90.9
concentration: 4.15 (µM), S9 metabolic activation: with S9, exposure time: 3-4 hours | 0.28 | 1.38 | 122
concentration: 4.15 (µM), S9 metabolic activation: without S9, exposure time: 24 hours | 1.68 | 1.42 | 118
concentration: 5.19 (µM), S9 metabolic activation: with S9, exposure time: 3-4 hours | 0.28 | 0.96 | 112
concentration: 5.19 (µM), S9 metabolic activation: without S9, exposure time: 24 hours | 1.46 | 1.4 | 118
concentration: 6.49 (µM), S9 metabolic activation: with S9, exposure time: 3-4 hours | 0.28 | 1.08 | 101
concentration: 6.49 (µM), S9 metabolic activation: without S9, exposure time: 24 hours | 1.46 | 1.28 | 138
concentration: 8.11 (µM), S9 metabolic activation: with S9, exposure time: 3-4 hours | 0.32 | 0.82 | 100
concentration: 8.11 (µM), S9 metabolic activation: without S9, exposure time: 24 hours | 1.48 | 1.8 | 135
concentration: 10.1 (µM), S9 metabolic activation: with S9, exposure time: 3-4 hours | 0.24 | 1.52 | 104
concentration: 10.1 (µM), S9 metabolic activation: without S9, exposure time: 24 hours | 1.06 | 2.22 | 124
concentration: 12.7 (µM), S9 metabolic activation: with S9, exposure time: 3-4 hours | 0.26 | 1.06 | 104
concentration: 12.7 (µM), S9 metabolic activation: without S9, exposure time: 24 hours | 1.16 | 1.68 | 135
concentration: 15.8 (µM), S9 metabolic activation: with S9, exposure time: 3-4 hours | 0.18 | 1.3 | 117
concentration: 15.8 (µM), S9 metabolic activation: without S9, exposure time: 24 hours | 1.62 | 1.76 | 130
concentration: 19.8 (µM), S9 metabolic activation: with S9, exposure time: 3-4 hours | 0.28 | 1.26 | 113
concentration: 19.8 (µM), S9 metabolic activation: without S9, exposure time: 24 hours | 1.82 | 2.36 | 105

CC(=O)c1ccccc1 [Acetophenone]
Conditions | hypodiploid nuclei frequency, [1] [%] | micronucleus frequency, [2] [%] | relative survival, [3]
concentration: 4.53 (µM), S9 metabolic activation: with S9, exposure time: 3-4 hours | 0.16 | 1.66 | 136
concentration: 4.53 (µM), S9 metabolic activation: without S9, exposure time: 24 hours | 0.6 | 2.54 | 118
concentration: 5.66 (µM), S9 metabolic activation: with S9, exposure time: 3-4 hours | 0.28 | 2.24 | 128
concentration: 5.66 (µM), S9 metabolic activation: without S9, exposure time: 24 hours | 0.48 | 1.44 | 96.9
concentration: 7.07 (µM), S9 metabolic activation: with S9, exposure time: 3-4 hours | 0.36 | 1.92 | 128
concentration: 7.07 (µM), S9 metabolic activation: without S9, exposure time: 24 hours | 0.68 | 1.74 | 79.6
concentration: 8.84 (µM), S9 metabolic activation: with S9, exposure time: 3-4 hours | 0.28 | 1.66 | 119
concentration: 8.84 (µM), S9 metabolic activation: without S9, exposure time: 24 hours | 0.58 | 1.52 | 84.9
concentration: 11.1 (µM), S9 metabolic activation: with S9, exposure time: 3-4 hours | 0.54 | 2.94 | 125
concentration: 11.1 (µM), S9 metabolic activation: without S9, exposure time: 24 hours | 0.74 | 1.96 | 86.3
concentration: 13.8 (µM), S9 metabolic activation: with S9, exposure time: 3-4 hours | 0.22 | 1.58 | 126
concentration: 13.8 (µM), S9 metabolic activation: without S9, exposure time: 24 hours | 0.46 | 1.92 | 72.5
concentration: 17.3 (µM), S9 metabolic activation: with S9, exposure time: 3-4 hours | 0.32 | 2.26 | 124
concentration: 17.3 (µM), S9 metabolic activation: without S9, exposure time: 24 hours | 0.5 | 3.18 | 79.6
concentration: 21.6 (µM), S9 metabolic activation: with S9, exposure time: 3-4 hours | 0.24 | 1.72 | 104
concentration: 21.6 (µM), S9 metabolic activation: without S9, exposure time: 24 hours | 0.92 | 3.98 | 94.8
concentration: 27 (µM), S9 metabolic activation: with S9, exposure time: 3-4 hours | 0.58 | 2.32 | 111
concentration: 27 (µM), S9 metabolic activation: without S9, exposure time: 24 hours | 1 | 3.68 | 78.1
concentration: 33.7 (µM), S9 metabolic activation: with S9, exposure time: 3-4 hours | 0.12 | 1.4 | 88.5
concentration: 33.7 (µM), S9 metabolic activation: without S9, exposure time: 24 hours | 0.8 | 1.74 | 93.1
concentration: 42.2 (µM), S9 metabolic activation: with S9, exposure time: 3-4 hours | 0.42 | 1.62 | 96
concentration: 42.2 (µM), S9 metabolic activation: without S9, exposure time: 24 hours | 0.68 | 1.72 | 73.8
concentration: 52.7 (µM), S9 metabolic activation: with S9, exposure time: 3-4 hours | 0.4 | 2.52 | 97.3
concentration: 52.7 (µM), S9 metabolic activation: without S9, exposure time: 24 hours | 0.88 | 2.48 | 73
concentration: 65.9 (µM), S9 metabolic activation: with S9, exposure time: 3-4 hours | 0.16 | 1.36 | 99.2
concentration: 65.9 (µM), S9 metabolic activation: without S9, exposure time: 24 hours | 1.16 | 1.92 | 69
concentration: 82.3 (µM), S9 metabolic activation: with S9, exposure time: 3-4 hours | 0.42 | 1.72 | 87
concentration: 82.3 (µM), S9 metabolic activation: without S9, exposure time: 24 hours | 1 | 1.86 | 69.9
concentration: 103 (µM), S9 metabolic activation: with S9, exposure time: 3-4 hours | 0.3 | 1.54 | 104
concentration: 103 (µM), S9 metabolic activation: without S9, exposure time: 24 hours | 1.12 | 2.9 | 60.9
concentration: 129 (µM), S9 metabolic activation: with S9, exposure time: 3-4 hours | 0.24 | 1.16 | 79.9
concentration: 129 (µM), S9 metabolic activation: without S9, exposure time: 24 hours | 0.86 | 2.14 | 59.1
concentration: 161 (µM), S9 metabolic activation: with S9, exposure time: 3-4 hours | 0.32 | 1.32 | 79.4
concentration: 161 (µM), S9 metabolic activation: without S9, exposure time: 24 hours | 1.24 | 2.14 | 72.8
concentration: 201 (µM), S9 metabolic activation: with S9, exposure time: 3-4 hours | 0.26 | 1.48 | 94.2
concentration: 201 (µM), S9 metabolic activation: without S9, exposure time: 24 hours | 1.46 | 2.78 | 80.5
